The supplement of paper PMC11417369
± gives the standard deviation of the averaged measurements. This is one part of the list.

Tested on: PfAP2-EXP AP2 domain (GST-tagged)
Test: gcPBM binding intensity (ln(normalized median fluorescence intensity)); higher = stronger DNA binding
Procedure, shortened: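 The binding buffer was 1× PBS containing 1% milk, 0.2 mg/ml BSA, 0.5% salmon testes DNA and 0.03% Triton X-100. In it, GST-tagged P. falciparum DNA-binding domains expressed in E. coli were applied for 1 h to an Agilent 4 × 180k array of primer-extended double-stranded 36-bp intergenic genomic probes plus negative controls. Binding intensity, read with Alexa488 anti-GST antibody and a 488 nm scan, is the highest Masliner-normalised natural-log median intensity across replicate spots of either probe orientation.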

Row | Sequence | gcPBM binding intensity (ln)
1 | TTTTGGTGGGTTACAAGTACTCAAAATGGATTGTTA [XGTACX_site1951] | 8.53 ± 0.29
2 | AAAAAAAAAAAAAAAACATGCAATAAAGTGTGCGTA [TGCATGCA_site982] | 8.68 ± 0.26
3 | TTAAATATATGTAATACGCACACTTAATATTTTGAG [CACACA_site4170] | 8.41 ± 0.37
4 | TCACATACATTACTTACACACCATATTGATATATAC [CACACA_site6353] | 8.86 ± 0.54
5 | TAAAAAAGAAAATATATACACACCAAAAAAAAAAAA [CACACA_site3146] | 8.44 ± 0.42
6 | ATTAAATCCGCACGCACACACACATATTAATAAAAA [CACACA_site3992] | 8.74 ± 0.32
7 | ACATGTCTTAAAAGACGTACATATAAAAGAACCCTA [XGTACX_site8940] | 8.6 ± 0.42
8 | AATATTAAAGAATAATGTACAAAATAAAAGCAAAGA [XGTACX_site3550] | 9.23 ± 0.42
9 | AAACAAAAAAATTGAAATAAAATGAAGTAAATGAAC [TGCATGCA_negctrl_site129] | 9.15 ± 0.23
10 | TTATTTTTTAAAAGTAGTACAAATTTTTATAGAAAA [XGTACX_site7407] | 8.48 ± 0.18
11 | CAATATTTGTTATGGGTGCAAACCGCATATATATAA [GTGCAC_site9543] | 8.76 ± 0.028
12 | ATTCCTTGGTTGTATAGTACTTTGGTTAAACATAAA [XGTACX_site6967] | 8.82 ± 0.4
13 | AATATAATATAATGCACACATAAAAAAAAAATCAAA [CACACA_site122] | 8.71 ± 0.54
14 | TTTTTATATAACCTTCTTAATTCTTTTTTTTTTTTT [XGTACX_negctrl_site591] | 8.38 ± 0.47
15 | AAAACAAAATTATGAACATGCAAGGTAAAATTGTAA [TGCATGCA_site775] | 9.12 ± 0.29
16 | AACTTACTTGGACATACACACATATAGATTTATATA [CACACA_site7412] | 8.84 ± 0.3
17 | GTACAAATGTTGTGTATATATACACACATACATATA [XGTACX_negctrl_site276] | 8.69 ± 0.33
18 | ATGTAGTTTTATCAGTGTACAAGTATTTTATCACAT [XGTACX_site8958] | 8.78 ± 0.34
19 | TTATTTATAAATATTAATTTTTTTTTTTTTTTTTTT [XGTACX_negctrl_site105] | 8.52 ± 0.26
20 | TTTTATGTTTCAAAATGTACATTAAAATATACCATA [XGTACX_site1713] | 8.29 ± 0.42
21 | AAAATATATATATATATATATATATGTATACTCCTA [XGTACX_negctrl_site312] | 8.65 ± 0.071
22 | TTTTATTATTGAATACTAGTATATATAATATGAAGA [CACACA_negctrl_site910] | 8.52 ± 0.42

Row | Sequence | gcPBM binding intensity (ln)
23 | ATATATATATTTTTTAAACACACACCGAAATATTTG [CACACA_site8937] | 9.14 ± 0.014
24 | TTAATTAAAACGAATACACACATAAATATATAAAAG [CACACA_site1254] | 8.81 ± 0.45
25 | CATATGCATACTATACGTACATATGTATATAATATA [XGTACX_site7738] | 8.64 ± 0.31
26 | TTTTATTTTATTCTTAAATAAGTATTATAAAATATG [XGTACX_negctrl_site201] | 8.15 ± 0.24
27 | TATAAAGCATATTAAAGTACTTATTTTCCTTTTTCT [XGTACX_site8892] | 8.44 ± 0.44
28 | TATATATATATGTGCACACATAATAAAAAAAAAAAT [CACACA_site3831] | 9.9 ± 0.11
29 | TTAATGTTGTATGGTTGTACAATAAGCCCCTTTTAA [XGTACX_site2484] | 8.54 ± 0.31
30 | TTATTTGAACAATATGCACACATTTTATTTATTTTA [CACACA_site3420] | 8.61 ± 0.23
31 | TTAAAGCTTACATATACACACATACATAAATTCATA [CACACA_site8785] | 8.5 ± 0.38
32 | TATGATGATATAAAAACACACACATATAATATAATA [CACACA_site8321] | 8.63 ± 0.42
33 | TTTTGATCATCCAAAATATCTTCATCTGAACTACTA [CACACA_negctrl_site939] | 8.35 ± 0.49
34 | GACATATTCCCCCCCACACACACACCCACATACATA [CACACA_site2302] | 10.8 ± 0.11
35 | GTAAAATAAAATATATGTACATATGTATATGAGGTA [XGTACX_site3743] | 8.97 ± 0.39
36 | ATTCAAACAAATTAATGTACATATATATAAGATATT [XGTACX_site1531] | 8.56 ± 0.4
37 | ATTTAGAAATATATTTGTACATATATATATATATAT [XGTACX_site7129] | 10.2 ± 0.35
38 | TACCCTGATCGGCATGCATGTAAGTAACAAATATAT [TGCATGCA_site153] | 9.71 ± 0.35
39 | TGTTGATAAAAAATAAAAAATAAAAAAATAAAATAT [TGCATGCA_negctrl_site559] | 8.61 ± 0.56
40 | ATATATACATATAAATGTACATAATTATTATGCACA [XGTACX_site1261] | 8.77 ± 0.34
41 | ATAAAAAGAAAAAAGGGTACACTATACTATTTAAAA [XGTACX_site4467] | 8.46 ± 0.33
42 | CTACATATTAATATATGTACATATTAATATATCTAA [XGTACX_site7118] | 8.18 ± 0.24
43 | TAAATAAGGAAGGAAACACACATTAAAAAATAAATA [CACACA_site618] | 8.81 ± 0.39
44 | AACAGAAGCACATACACACACTCAAAAAAAAAAAAA [CACACA_site5652] | 8.22 ± 0.47

Row | Sequence | gcPBM binding intensity (ln)
45 | TTTTTAAATTATTTGAAAAAAAGAAAATTATAAACA [CACACA_negctrl_site1599] | 8.29 ± 0.49
46 | ATTTTATTCTAAAAAGGTACACATATTATTTTATGA [XGTACX_site7233] | 8.19 ± 0.21
47 | GGAAAAACCATTCGCACACACACATAATATATAATA [CACACA_site1424] | 8.66 ± 0.47
48 | ATTAATATATATGGATGTACTTATGTATGTATGCAT [XGTACX_site2263] | 8.5 ± 0.28
49 | ATAATAATATATATTACACACGCATCGTTCATTTAT [CACACA_site8752] | 8.78 ± 0.51
50 | CATGTATAATATAATACACACTATATAATATACACC [CACACA_site5267] | 8.52 ± 0.3
51 | TATTGACAAAATAGCTGTACAAATTAAAAGAAATAA [XGTACX_site4415] | 8.72 ± 0.48
52 | ATGGCCATAATATAGACACACATATATAAATATATA [CACACA_site2230] | 8.39 ± 0.3
53 | CGATATGTTCAATATTGTACTATTTATAATAATATG [XGTACX_site3051] | 8.34 ± 0.28
54 | TATTTATATGGACACACACACATATAAATAAATAAA [CACACA_site6346] | 8.88 ± 0.58
55 | TCTTACTAATATCGCACACACATATGTAGACGGGAT [CACACA_site87] | 8.64 ± 0.33
56 | TTATTGTCTTCTCATATACACACTTTTATGACTATC [CACACA_site3142] | 8.94 ± 0.45
57 | TTTAATTGATAATGAAGACAATTATATGCATCCAAA [TGCATGCA_negctrl_site138] | 8.4 ± 0.36
58 | CTTAAAAAAAAAAAATGTACACATAAAAAAAATACA [XGTACX_site6700] | 8.52 ± 0.35
59 | TAAAATATTATAAAATGTACAAAACATATAAATATA [XGTACX_site5315] | 8.38 ± 0.26
60 | TGTAGGTATTATTATACACACATAAAAAAAAAAAAA [CACACA_site3598] | 8.49 ± 0.59
61 | AAACATATATATATTATATATATATATATATATATG [GTGCAC_negctrl_site182] | 8.47 ± 0.042
62 | TAACATATAATATTCACACACATATATATATTATAT [CACACA_site988] | 8.69 ± 0.47
63 | AAATTAAAAAGACATTCACACATTTTCATCTTAACA [CACACA_site5221] | 8.34 ± 0.43
64 | TATTATTATCTTACCACACACAATGTACGAAAAGAT [CACACA_site352] | 8.61 ± 0.3
65 | TATATTTTCTATAGGTGTACTCCACATGCGGTGTTA [XGTACX_site7471] | 8.67 ± 0.42
66 | ATATTGATACATCCAATACACACTACATATAATGAT [CACACA_site1874] | 8.52 ± 0.29

Row | Sequence | gcPBM binding intensity (ln)
67 | AAACATCTTTACAACGTCCCTCCTTTTTTATGTACC [GTGCAC_negctrl_site528] | 8.76 ± 0.54
68 | ATATATGATGTAAAAGCACACATATATATATATATA [CACACA_site9330] | 10.1 ± 0.25
69 | TCCCTCTTTTTATTCTCACACACGTTTATATATAAA [CACACA_site1644] | 9.14 ± 0.49
70 | AATATATATAAATATTGTACAAAAATATATATATAT [XGTACX_site2910] | 9.7 ± 0.3
71 | TATATAAACATATAAACATGCAATATATATATGTTA [TGCATGCA_site765] | 8.43 ± 0.2
72 | AAAAAAATTAAATCAAGTACTCATTCTTAAATTATA [XGTACX_site1274] | 8.01 ± 0.28
73 | GGAAAAAAACTTATGAGTACACATAAATATAGCACA [XGTACX_site6686] | 9.14 ± 0.11
74 | AAAAATATATAACAAAGTACATATATATTTAGTAAT [XGTACX_site8791] | 8.35 ± 0.38
75 | TGTATGAAATATATTACACACATATATAATATATAT [CACACA_site793] | 8.36 ± 0.3
76 | GTGTAAATAAGGATATATAACAATCAACAAAACATA [CACACA_negctrl_site1759] | 8.83 ± 0.54
77 | ATACACAAAATTATTAAATCAATAAATATATGGTTT [CACACA_negctrl_site353] | 8.07 ± 0.47
78 | ATATTTTTCAAACATCGTACATTATGAGTTAAAATT [XGTACX_site584] | 8.38 ± 0.33
79 | CACACCCACCAACACACACACACACCCACCCATATA [CACACA_site366] | 8.61 ± 0.57
80 | TTATAAATGAATAAATGTACAAAATATATATATATA [XGTACX_site8829] | 10.1 ± 0.36
81 | CATAACATAAAATAGGTGCACAAAAATTGTAATTGA | 9.275 ± 0.035
82 | TTGTAATATATGTATTGTACGCATATAACAATTATT [XGTACX_site3652] | 8.46 ± 0.22
83 | TTCAGTGTATACATATGTACATATATATATATATAT [XGTACX_site1621] | 10 ± 0.42
84 | ATTTTTATTTGTTACGCATGCATAAAAGTGCATACT [TGCATGCA_site547] | 9.685 ± 0.092
85 | AAAATACATAAATGTTCACACATTAAAAAGCAGAAG [CACACA_site5346] | 8.87 ± 0.49
86 | TTTATAAAGAAACACACACACATGTGAACATAAAAA [CACACA_site1908] | 8.94 ± 0.45
87 | TATGTCAGATGAAAGGGTACATAATATAATATATTT [XGTACX_site8062] | 8.32 ± 0.46
88 | TTTTTTTTTTAATTCGCACACTGTCTTCATACAATT [CACACA_site1379] | 8.91 ± 0.41
